# Tests used:
# A/WSN/33 = type: cell-based
# A/WSN/33 virus [1] = type: cell-based, Influenza A virus (H1N1)
# A/WSN/33 virus [2] = tested on: A/WSN/33 virus
# influenza A/WSN/33 virus = type: cell-based, Influenza A virus (H1N1)
# [3] = tested on: human coronavirus OC43 (HCoV-OC43); type: cell-based
# A/WSN/33 virus [4] = type: cell-based, Influenza A virus (H1N1); remark: listed apart in the source
# SARS-CoV-2 = type: cell-based; settings: without cytotoxicity, data unpublished
Compound,IAV replication (intracellular IAV RNA) (A/WSN/33),number of clathrin-coated vesicles (A/WSN/33 virus [1]),"intracellular level of vRNA, pre-fusion stage (A/WSN/33 virus [2])",formation of viral plaques (influenza A/WSN/33 virus),HCoV-OC43 infection in vitro [3],"NP protein level, viral binding (A/WSN/33 virus [4])",SARS-CoV-2 infection in vitro (SARS-CoV-2)
O=C(O)CN(CCOCCOCCN(CC(=O)O)CC(=O)O)CC(=O)O [EGTA],dramatically impaired,,,,,,
COC(=O)C1=C(C)NC(C)=C(C(=O)OCC(C)C)C1c1ccccc1[N+](=O)[O-] (stereo not shown) [Nisoldipine],,less than that in the control cells,remarkably reduced,dose-dependently reduce,capable of inhibiting,no significant difference,capable of inhibiting

# — paper PMC9785492 (Viruses, 2022)
